Hit rate of the full screen: of about 39,000 compounds, about 220 (0.56%) showed activity. The list shows a part of the results.
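Also: static incubation at 37 °C against the wild-type strain, values averaged over two biological replicates.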

This test deals with Escherichia coli K-12 BW25113. In words: relative growth (OD600 normalised to plate interquartile mean) (fraction); higher = less growth inhibition, active = 0.2 or less. To be noted: 50 µM; LB; incubation time: overnight (16-24 h).
`C[C@@H]1CN([C@H](C)CO)C(=O)c2cc(C#CCN(C)C)cnc2O[C@@H]1CN(C)S(=O)(=O)c1ccccc1`: the relative growth is inactive: 0.993.

Take `COc1cccc(NC(=O)N(C)C[C@@H]2OCc3ccccc3-c3c(n(C)c4ccccc34)C(=O)N([C@@H](C)CO)C[C@@H]2C)c1`: the relative growth was inactive: 1.06. Turning to `COc1cccc(S(=O)(=O)N[C@H]2CC[C@H](CC(=O)NC3CCC3)O[C@@H]2CO)c1`, the relative growth is inactive: 1.01.

As to `COc1cc2nccc(Oc3ccc(NC(=O)c4cn(C(C)C)c(=O)n(-c5ccc(F)cc5)c4=O)cc3F)c2cc1OC`, the relative growth was inactive: 0.99.

Consider `Cc1noc(C)c1S(=O)(=O)Nc1ccc2c(c1)C(=O)N([C@@H](C)CO)C[C@@H](C)[C@@H](CN(C)C(=O)Nc1ccc(F)cc1)OCCCC[C@@H](C)O2`, for which the relative growth was inactive: 1. `C[C@H]1CN([C@@H](C)CO)S(=O)(=O)c2ccc(C#CCN(C)C)cc2O[C@H]1CN(C)C(=O)CN(C)C`: the relative growth is inactive: 0.91. Regarding `Cc1ccc(S(=O)(=O)N(C)C[C@@H]2Oc3ccc(NC(=O)NC(C)C)cc3C(=O)N([C@@H](C)CO)C[C@H]2C)cc1`, the relative growth is inactive: 1. The result for `COc1ccc(S(=O)(=O)N(C)C[C@H]2Oc3c(NS(C)(=O)=O)cccc3C(=O)N([C@@H](C)CO)C[C@H]2C)cc1` reads inactive: 0.98. Turning to `Fc1cccc(CSCc2c(F)cccc2Cl)c1`, the relative growth was inactive: 0.83. The result for `COc1ccc2c3c([nH]c2c1)[C@H](CO)N(C[C@]13CN(C1)S(=O)(=O)C)C(=O)c1cnccn1` reads inactive: 0.999; that for `C[C@H]1CN([C@@H](C)CO)S(=O)(=O)c2ccc(C#Cc3ccncc3)cc2O[C@H]1CN(C)S(=O)(=O)c1ccc(F)cc1`, inactive: 0.97. For the compound `C[C@@H]1CCCCO[C@@H](CN(C)CC2CCCCC2)[C@@H](C)CN([C@H](C)CO)C(=O)c2cc(NS(=O)(=O)c3ccc(F)cc3)ccc2O1`, the relative growth is inactive: 0.998. The result for `C[C@@H]1CN([C@@H](C)CO)C(=O)c2cc(NC(=O)Nc3cccc4ccccc34)ccc2O[C@@H](C)CCCCO[C@@H]1CN(C)Cc1ccncc1` reads inactive: 0.888. For `C[C@@H]1CCCCO[C@H](CN(C)C(=O)Nc2ccc3c(c2)OCO3)[C@@H](C)CN([C@H](C)CO)C(=O)c2cc(NS(=O)(=O)c3ccc(F)cc3)ccc2O1`, the relative growth is inactive: 1.02.

With `C[C@@H]1CC[C@@]2(OC1)O[C@H]1C[C@H]3[C@H]4CC=C5C[C@@H](O[C@@H]6O[C@H](CO)[C@@H](O[C@@H]7O[C@@H](C)[C@H](O)[C@@H](O)[C@H]7O[C@@H]7O[C@@H](C)[C@H](O)[C@@H](O)[C@H]7O)[C@H](O)[C@H]6O)CC[C@]5(C)[C@@H]4CC[C@]3(C)[C@H]1[C@@H]2C`, the relative growth was inactive: 0.872. The result for `C[C@@H]1CN([C@@H](C)CO)C(=O)c2cccc(NC(=O)c3ccc(-c4nccs4)cc3)c2O[C@@H]1CN(C)C(=O)Nc1cccc2ccccc12` reads inactive: 1.03; that for `COc1ncnc(N)c1OC`, inactive: 1.02; that for `C[C@@H]1CCCCO[C@H](CN(C)CC2CCCCC2)[C@H](C)CN([C@@H](C)CO)C(=O)c2cc(NC(=O)NC3CCCCC3)ccc2O1`, inactive: 0.961.

With `O=C(C=Cc1ccc(O)c(O)c1)OC1CC(O)(C(=O)O)CC(O)C1O` (stereo not drawn), the relative growth is inactive: 1.04.

As to `NNC(=O)c1ccc(OC[C@@H](O)CO)cc1O`, the relative growth is inactive: 1.01. Regarding `O=C(O)COc1nn(Cc2ccccc2)c2ccccc12`, the relative growth is inactive: 1.07. The result for `CC(C)NC(=O)Nc1ccc2c(c1)C(=O)N([C@H](C)CO)C[C@H](C)[C@@H](CN(C)S(=O)(=O)c1ccc(Cl)cc1)O2` reads inactive: 1.01; that for `C[C@@H]1CN([C@H](C)CO)C(=O)c2cccc(NC(=O)NC3CCCCC3)c2O[C@H]1CN(C)Cc1ccc(Oc2ccccc2)cc1`, inactive: 0.946; that for `COCC(=O)Nc1ccc2c(c1)C(=O)N(C)C[C@H](OC)[C@H](C)CN(Cc1ccccc1F)[C@@H](C)CO2`, inactive: 1.04. For the compound `COc1cccc(-c2cn(CC[C@H]3CC[C@@H](NC(=O)CN(C)C)[C@@H](CO)O3)nn2)c1`, the relative growth is inactive: 0.998. With `S=C=Nc1ccc(N=C=S)cc1`, the relative growth was inactive: 1.02.

For the compound `CCC(=C(c1ccccc1)c1ccc(OCCN(C)C)cc1)c1ccccc1.O=C(O)CC(O)(CC(=O)O)C(=O)O`, the relative growth is inactive: 0.642. The result for `Cc1cccnc1[C@H](c1ccc(F)cc1)N(C)C(=O)C1CCN(CCn2cnc3c2c(=O)n(C)c(=O)n3C)CC1` reads inactive: 1; that for `CCc1ccc(/C=C2\SC(=O)N(CCCCCCNC(=O)c3ccccc3Nc3ccc([N+](=O)[O-])c4nonc34)C2=O)cc1`, inactive: 0.982. For the compound `CN1C(=O)c2cc(NC(=O)c3ccc(C(F)(F)F)cc3)ccc2OC[C@@H]2O[C@H](CC(=O)NC3Cc4ccccc4C3)CC[C@H]21`, the relative growth was inactive: 1.03.

With `CC(C)N1C[C@H](C)[C@@H](CN(C)Cc2ccc(Oc3ccccc3)cc2)Oc2c(C(=O)Nc3ccncc3)cccc2C1=O`, the relative growth was inactive: 0.985. `COc1ccc(S(=O)(=O)N(C)C[C@@H]2Oc3c(NC(=O)NC(C)C)cccc3C(=O)N([C@@H](C)CO)C[C@@H]2C)cc1`: the relative growth is inactive: 1.03. The result for `COc1ccccc1S(=O)(=O)N(C)C[C@@H]1Oc2cc(C#CCC(C)C)ccc2S(=O)(=O)N([C@@H](C)CO)C[C@H]1C` reads inactive: 0.98. The result for `O=C(C[C@H]1CC[C@H]2[C@@H](COC[C@H](O)CN2S(=O)(=O)c2ccc(Oc3ccccc3)cc2)O1)NCCN1CCCCC1` reads inactive: 0.998; that for `CC[C@@H](C)CCCCC(=O)N[C@@H](CCN)C(=O)N[C@H](C(=O)N[C@@H](CCN)C(=O)N[C@H]1CCNC(=O)[C@H]([C@@H](C)O)NC(=O)[C@H](CCN)NC(=O)[C@H](CCN)NC(=O)[C@H](CC(C)C)NC(=O)[C@@H](Cc2ccccc2)NC(=O)[C@@H](CCN)NC1=O)[C@@H](C)O`, active: 0.0424. Turning to `CN(C)C(=O)CN1C[C@]23CN(Cc4cnn(C)c4)C[C@@H](C[C@@H]2S1(=O)=O)O3`, the relative growth was inactive: 0.995. The result for `OC[C@@H](O)[C@@H](O)[C@H](O)[C@@H](O)CO` reads inactive: 1.01. The result for `C[C@H](NC(=O)N(C)C[C@@H]1OCc2ccccc2-c2ccccc2C(=O)N([C@H](C)CO)C[C@H]1C)c1ccccc1` reads inactive: 1.01.

The values are drawn from the supplement of paper PMC9446081.
